Measurements published in article PMC6451091.
Some of the results follow. For some assays here: At the low end of the ranking, values are background and their order means little. For some assays here: The protein was read in a cell extract, so binding may be indirect.

What follows are sequences tested against PU.1 (IVT) (UniProt P17947) (assay: protein-binding microarray (PBM)). Details: 20 mM HEPES pH 7.9, 100 mM NaCl, 1 mM DTT, 0.2 mg/mL BSA, 0.02% Triton X-100, 2% milk, 0.4 mg/mL salmon testes DNA; 1 h; temperature not stated; high values mean tight binding; double strand, one strand shown; sequences stand for … in GCCTAGCAC…GTGCTAGGTCTTGATTCGCTTGACGCTGCTG.

| Sequence | binding signal |
| --- | --- |
| CTGTCAGGGAACTGAAACTC | 0.378 z-score |
| TGGCAGAGCAAGTGAAACTA | -0.639 z-score |
| CTGGCAGGGAACTGGAACTC | 0.687 z-score |
| AAGAAAGAGAACTGAAAGTA | 0.933 z-score |
| ATAAAAAGGAAATGAAAGTA | 2.01 z-score |
| CTGGCCGGGAACTGAAACTC | -0.135 z-score |
| TAAAACAGGAAGTGAAACCA | 7.54 z-score |
| TAAAGGAGGATCTGAAACCA | 0.0832 z-score |
| CTGGCAGGGAACTGAAACCC | 0.713 z-score |
| AGAGAGAGGAAGTGAAAGTA | 4.81 z-score |
| TGAGAGGAGAAGTGAATCCT | 1.46 z-score |
| CCAGAAAGGAAGTGAAACTC | 2.59 z-score |
| GATAAGAGGAACTGCAAGCT | 3.52 z-score |
| CAAAATGGGAAGTGAAACTA | 5.99 z-score |
| ATCATCAGGAACTGAAACTG | 1.18 z-score |
| AAAAAAAGGAAAAGAAAGTA | 0.585 z-score |
| TTGCAGAGGAAGTGAAACTA | 3.03 z-score |
| AAGAGGCAGAACTGAAACTC | -0.0493 z-score |
| GATAAGAGGAACTGAAGGCT | 3.86 z-score |
| GAAAGGAGGATGTGAAACTA | 1.56 z-score |

| Sequence | binding signal |
| --- | --- |
| CTGGCAGTGAACTGAAACTC | 0.196 z-score |
| AAATAAAGGAAATGAAAGTA | 1.79 z-score |
| CTGCCAGGGGAGTGAAAGCA | -0.635 z-score |
| CTTTTAAGGAACTGAAACTC | 2.98 z-score |
| AAGGTGAGGAACTGAAACTT | 2.16 z-score |
| CTTGTGAGGAAGTGAAACTT | 3.62 z-score |
| CAGGAGAGGAAGTGAAACTC | 4.18 z-score |
| AAAAAATGGAAATGAAAGTA | 1.03 z-score |
| ACTGAAGGGAAGAGAAACTA | 0.76 z-score |
| TGGCAGAGGAGGTGAAACTA | -0.448 z-score |
| GAAAAGAGGAACCGAAACTT | 6.08 z-score |
| TGAAACAGGAAGTGAAGCCA | 6.24 z-score |
| TAAAGGAGAAACTGAAACCA | 0.576 z-score |
| TTGGGCAGGAACTGAAACCT | 0.802 z-score |
| TAAAGGAGGAACTAAAACCA | 4.4 z-score |
| AAAAAAAGGAAATGAAAGTA | 3.32 z-score |
| TGAGAGGAGAAGTAAAACCT | 1.45 z-score |
| TGAAACAGGAAATGAAACCA | 3.26 z-score |
| TAGAGGAGGAACTGAAACCA | 2.43 z-score |
| TCTTTGAGGAAATGAAACCA | 2.2 z-score |

Each sequence was assayed against T1, FLI1 (endogenous, THP-1 nuclear extract) (UniProt Q01543) (assay: nuclear extract protein-binding microarray (nextPBM)). Details: 20 mM HEPES pH 7.9, 100 mM NaCl, 1 mM DTT, 0.2 mg/mL BSA, 0.02% Triton X-100, 2% milk, 0.4 mg/mL salmon testes DNA; 1 h; temperature not stated; high values mean tight binding; double strand, one strand shown; sequences stand for … in GCCTAGCAC…GTGCTAGGTCTTGATTCGCTTGACGCTGCTG.
T1 sequence: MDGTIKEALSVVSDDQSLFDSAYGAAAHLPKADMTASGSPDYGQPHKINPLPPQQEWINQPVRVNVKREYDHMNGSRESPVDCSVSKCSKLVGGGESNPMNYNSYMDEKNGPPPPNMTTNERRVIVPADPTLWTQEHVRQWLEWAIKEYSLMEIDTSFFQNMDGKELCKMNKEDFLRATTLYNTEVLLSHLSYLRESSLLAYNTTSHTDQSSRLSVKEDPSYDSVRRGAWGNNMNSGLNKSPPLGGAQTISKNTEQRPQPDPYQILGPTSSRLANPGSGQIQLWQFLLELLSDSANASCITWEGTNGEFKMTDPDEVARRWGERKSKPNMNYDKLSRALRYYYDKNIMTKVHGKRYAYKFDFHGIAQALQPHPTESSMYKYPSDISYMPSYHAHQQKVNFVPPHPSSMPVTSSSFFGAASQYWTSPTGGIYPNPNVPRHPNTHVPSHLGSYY

| Sequence | binding signal |
| --- | --- |
| CTGTCAGGGAACTGAAACTC | 0.519 z-score |
| TGGCAGAGCAAGTGAAACTA | -0.56 z-score |
| CTGGCAGGGAACTGGAACTC | 0.43 z-score |
| AAGAAAGAGAACTGAAAGTA | 0.344 z-score |
| ATAAAAAGGAAATGAAAGTA | 2.24 z-score |
| CTGGCCGGGAACTGAAACTC | -0.0298 z-score |
| TAAAACAGGAAGTGAAACCA | 5.58 z-score |
| TAAAGGAGGATCTGAAACCA | 0.472 z-score |
| CTGGCAGGGAACTGAAACCC | 0.209 z-score |
| AGAGAGAGGAAGTGAAAGTA | 3.6 z-score |
| TGAGAGGAGAAGTGAATCCT | 0.561 z-score |
| CCAGAAAGGAAGTGAAACTC | 2.92 z-score |
| GATAAGAGGAACTGCAAGCT | 1.36 z-score |
| CAAAATGGGAAGTGAAACTA | 3.1 z-score |
| ATCATCAGGAACTGAAACTG | 0.647 z-score |
| AAAAAAAGGAAAAGAAAGTA | 1.15 z-score |
| TTGCAGAGGAAGTGAAACTA | 3.48 z-score |
| AAGAGGCAGAACTGAAACTC | -0.535 z-score |
| GATAAGAGGAACTGAAGGCT | 1.39 z-score |
| GAAAGGAGGATGTGAAACTA | 2.23 z-score |

| Sequence | binding signal |
| --- | --- |
| CTGGCAGTGAACTGAAACTC | -0.255 z-score |
| AAATAAAGGAAATGAAAGTA | 2.28 z-score |
| CTGCCAGGGGAGTGAAAGCA | -0.652 z-score |
| CTTTTAAGGAACTGAAACTC | 2.11 z-score |
| AAGGTGAGGAACTGAAACTT | 1.15 z-score |
| CTTGTGAGGAAGTGAAACTT | 2.99 z-score |
| CAGGAGAGGAAGTGAAACTC | 3.67 z-score |
| AAAAAATGGAAATGAAAGTA | 0.86 z-score |
| ACTGAAGGGAAGAGAAACTA | 0.0274 z-score |
| TGGCAGAGGAGGTGAAACTA | 0.256 z-score |
| GAAAAGAGGAACCGAAACTT | 3.82 z-score |
| TGAAACAGGAAGTGAAGCCA | 5.5 z-score |
| TAAAGGAGAAACTGAAACCA | -0.121 z-score |
| TTGGGCAGGAACTGAAACCT | 1.7 z-score |
| TAAAGGAGGAACTAAAACCA | 1.54 z-score |
| AAAAAAAGGAAATGAAAGTA | 2.46 z-score |
| TGAGAGGAGAAGTAAAACCT | 0.381 z-score |
| TGAAACAGGAAATGAAACCA | 5.57 z-score |
| TAGAGGAGGAACTGAAACCA | 1.75 z-score |
| TCTTTGAGGAAATGAAACCA | 2.33 z-score |
